Results published in the supplement of paper PMC10126150.
Values marked as one replicate rest on one cluster of the flow cell; about a third of the high ones do not repeat.

Tested on: ATP
Test: switch fluorescence ratio, 500 uM ATP over buffer (Cy3 cluster intensity, sum of 5 cycles each) (fold (ratio)); higher = stronger signal-on switching upon ATP binding; sequences stand for … in TCGTCGGCAGCGTCAGATGTGTATAAGAGACAGTTTTTTTTTTTTTTTTTTTTTTTTT…TC
Conditions: aptamer strand: ATP DNA aptamer (quencher-CACCTGGGGGAGTATTGCGGAGGAAGG + anchor), 100 nM annealed; ATP concentration: 500 uM; one replicate
Procedure, shortened: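 Five buffer/ATP imaging cycles were run on Cy3-labelled switching-strand clusters on a modified Illumina MiSeq flow-cell, with NaOH stripping and re-annealing between cycles. In each cycle, clusters annealed to 100 nM quencher-labelled ATP aptamer were imaged in selection buffer, then after 15 min with 500 uM ATP at 22 °C. Per cluster, the fluorescence ratio is summed target-cycle over summed buffer-cycle Cy3 intensity, averaged per switch-domain sequence. Only clusters within 100-1000 RFU were kept.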
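Also: ATP exposure 15 min at 22 °C before imaging.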

Sequence	switch fluorescence ratio
ACTGTAAGTT	0.992
ATTACCATCA	1.05
GGTGCGAGTC	1.03
TCGACCTTT	1.03
TGGTGTCCCG	0.987
CATACCAGTA	1
TAAAGACAGT	1.03
GGCATATGTG	1
TACATTTCTT	0.994
GGGCGTCTGG	1.03
ACACTTATGT	0.989
GGAGGGGTAA	1.02
TCATAGTAGT	1.01
AGAGGCATGG	1.02
TGAATCATTA	1.02
CGTGTTTTAA	0.925
TCTTTCTAGG	0.981
TCGCATAAAG	1.09
GGCACATATG	0.98
ACGCTGGGGC	1.19
CCATCTTAGG	1.01
TGGTCAACTC	1.03
GAGCGTAATT	1.02
ATCCAATCAC	1.09
TTAGTCAGTT	1.01
TCGGCTACC	1.05

Sequence	switch fluorescence ratio
GCCGTCTTG	1.04
AGGGCTAGAA	0.991
TTGACCTAGT	1.04
CGGAGCCGGG	0.959
TGTGTTCACG	1.01
GCCGAGGCCA	1.02
TTCTTTCCTT	1.56
GGGACGTCAC	1.17
AAAAATAGGA	0.969
GGACTAATTC	1.05
ACCAGAGTCT	1.02
ATTCGTGGGT	0.973
CGTGATGGT	0.997
CATTAAGTTA	1.02
CTACAACTAG	1.02
CCATTCTTAT	0.973
TAGCTTTGTA	0.986
ATAGGATGTT	0.981
AGCCCAGGA	0.984
TCGTTTATT	1.03
ATTTTAGTT	0.988
GGGGGGTGT	1.05
AAGTTAAGTA	1.05
GACACACTAG	1.14
AGTATGCGT	1.01
TGCAATTAC	3.48

Sequence	switch fluorescence ratio
TAGTGTTTGC	0.972
ATAGGACCAT	0.996
AGTGCTCGGA	1.02
TCTATCAAGG	0.981
TACCCTAAAA	1.03
TTGAACCAGG	1.29
AACCGGTCGA	1.01
CATTAGTGGC	1.08
CGCTGACTGT	1.04
ATTATGTCTC	1.04
CACTCAGTAG	1.07
ACTACTGGCA	1.09
TGTTGCCAGC	1.04
CTAATTGGGA	0.978
TATAATTCGG	1
CGCTTGGG	1
TCCTGGTAAC	1.02
GCTAGCCTGC	1.02
TGCGGGCACT	1.01
TTTGCAGTT	0.936
CTGCAGAAGT	1.01
TCATTCTTAC	1.06
TTAGGAGAAG	0.964
ACATAGGGGA	1.06
CCATATTTTC	1.02
AATCGATTGC	0.979

Sequence	switch fluorescence ratio
GGGAAAGCAA	1.31
AAAAAACGAG	1.05
GATTACTCGT	0.965
TCAAATGGAC	1.09
TTGTCGAGGA	1.1
ATCATAGGCC	1.03
ACGATTGTTT	1.05
TTCGGGACTT	1.02
TACTATTG	1.04
CGGAAGGATT	0.996
AAAACATCGT	0.984
TCGGTTCTGC	1.08
CACGTCACCT	1.68
CGCCTGAATC	1.05
TCGATGTATT	0.972
TTCAGTTGTG	0.981
AGGCTCTGAC	0.981
TTGAAGTCTC	1.25
TAAGGAGCCC	1.01
CGTGTATCTC	1.06
TATCATGGGC	1.06
TGTTTCAATA	1.01
AGGCCCAACG	1
GTGACTGCAA	2.22
GGGTCGTTGC	0.979
TAGCTGTTTG	0.99

Sequence	switch fluorescence ratio
TAACGATTAT	0.991
AAAATTAGAA	1.01
TTTTTCAGC	1.02
GCTATTAACA	1.06
ATCATCAAGA	1.01
GTTCGTAATG	1.04
CGTAAGAGAA	1.02
CTGGAACTAA	0.995
TTCCTTTATG	0.967
TAATCGAAC	0.98
TTTCGCAAAC	2.95
CCATCTAATT	1.03
AAATTCTTAA	1.02
ACATAGAGT	1
GTGACAGTAT	1.02
TTAGCGTGAA	1.09
CCCAGTTACG	1.04
TCAGCCGTCG	1.02
CGGGACTGTA	1.04
TACAATAAAA	1
CAAACTTGTT	0.961
CGGCCGGGAG	1.02
CGCCTGGGGA	1.03
GGCTCCGCCT	1.09
CTCACTCATG	1.02
CGGGCCAGAA	1.38

Sequence	switch fluorescence ratio
GGTGCTTGCG	1.05
CGGCGGCTTG	1.01
CCCCGACCGA	1.2
ATCTACATTT	0.989
GTTCCTAGCA	1.32
TGGCTTAAGT	0.996
CACGCCAGCA	1.09
GTATTTGTAT	1.01
ATGGACTGCT	1
ATATGCGCCA	0.997
GCACGAGTTC	1.02
AGTAGTTTTT	1.01
TGCAACTTGC	1.07
CATGCTTTAG	0.975
TAATGTTCTG	1.05
ATACGTCGCA	1.06
CTCCCGTTA	1.37
TTTCTCGAAA	1.09
AGTTTTTGA	0.934
CGCCTAAATG	0.971
TTGCGTCACC	1.01
TTGTATTGAG	1
TTCGGGACCA	0.987
GTTAGCTCTC	1.01
TTTCTCGGGG	0.97
CGTGCTAGTG	0.968

Sequence	switch fluorescence ratio
ATCCGTCCCT	1.03
CTGCATGGCG	1.08
AGGCTGGGAC	1.03
GTAGTCTTCA	1.05
TAATATATTC	0.97
GAGGACTTAT	1.05
GGGCTATATG	1.06
CCCCGGGGGC	1.84
TGGCAACTTT	0.996
GACGTTAAGT	1.03
CTCTTTTATT	0.985
TTGTCTGTTG	1.01
TTGAGGCCCT	1
AGGGACCGAA	1.04
CCTTTGTGGA	1.04
GCTGGGTCT	1.02
CACATGCCTG	1.01
CCAATGCGGC	1.44
TTCAAGTATG	1.01
GAGGTGCCGG	0.999
GTTTCAGCGT	1.02
GGCATGGATT	1
TAACGAGT	0.992
GCGATTGTAG	1.02
CAGTTTTTGC	0.992
CTTGGTTTGG	1.01

Sequence	switch fluorescence ratio
GCCTGGATGT	0.962
ACATATTAGA	1.06
CGGCGGGTC	0.982
AATAAACGCA	1.12
TGACCTTTCC	3.28
TAGCTGATCC	1.07
AGCATCTTGT	0.969
ACGGTCCTC	1.04
CCATACATGG	1.01
GATATCGGCC	1
CGGTATGACC	1.03
TTTGGCTG	0.953
CGTATTTATG	1
TGGTGGCATC	0.947
GTTCTGGCCT	1.02
CATGGTGGG	1.02
TTAGAACCAT	1.04
AGGGGTTGCT	0.992
GAGGGAAGC	0.984
